Reference: PubChem BioAssay AID1468 (National Center for Advancing Translational Sciences (NCATS), 2008)
Values joined by “and” are separate entries in the source; they are usually repeats but may differ in a detail not shown here. Equal entries are not always repeated. Out of some 280,000 compounds screened, about 1,100 (0.39%) were called active. The inconclusive results got no clear call from the source; some entries with a clear call stand among them for comparison. The call rests on the fitted dose curve; in most records, active means well fitted inhibition curve with a large enough effect; inconclusive means small, poorly fitted or top-dose-only effect, or effect the other way; inactive means flat fitted curve, though single readings scatter. A potency beside an inconclusive call is a rough fit, not a confirmed value.

Each compound was assayed against Microtubule-associated protein tau (Homo sapiens) (UniProt P10636) (assay: qHTS for Inhibitors of Tau Fibril Formation, Fluorescence Polarization). Conditions: K18 P301L tau heparin fibrillization, Alexa594 FP, 6 h; series mostly up to 57.7 µM; activity, negative = inhibition: at the top concentration.
In short: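 K18 P301L tau (15 uM unlabeled/0.24 uM Alexa 594-labeled, final) + compound + heparin 20 uM final; 100 mM NaOAc pH 7; 6 hr 37 C; ThT 30 uM final added, 1 hr RT; FP ex 555/em 632 nm.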
Further: nearly all actives have a fitted effect of over 55% in size.
On the % scale 0 is the no-effect control and ±100 the full control effect; potency means the concentration at half of the fitted maximal effect; tags describe the fitted curve by direction and shape.

Sequence of UniProt P10636 (P10636 whole entry, looked up): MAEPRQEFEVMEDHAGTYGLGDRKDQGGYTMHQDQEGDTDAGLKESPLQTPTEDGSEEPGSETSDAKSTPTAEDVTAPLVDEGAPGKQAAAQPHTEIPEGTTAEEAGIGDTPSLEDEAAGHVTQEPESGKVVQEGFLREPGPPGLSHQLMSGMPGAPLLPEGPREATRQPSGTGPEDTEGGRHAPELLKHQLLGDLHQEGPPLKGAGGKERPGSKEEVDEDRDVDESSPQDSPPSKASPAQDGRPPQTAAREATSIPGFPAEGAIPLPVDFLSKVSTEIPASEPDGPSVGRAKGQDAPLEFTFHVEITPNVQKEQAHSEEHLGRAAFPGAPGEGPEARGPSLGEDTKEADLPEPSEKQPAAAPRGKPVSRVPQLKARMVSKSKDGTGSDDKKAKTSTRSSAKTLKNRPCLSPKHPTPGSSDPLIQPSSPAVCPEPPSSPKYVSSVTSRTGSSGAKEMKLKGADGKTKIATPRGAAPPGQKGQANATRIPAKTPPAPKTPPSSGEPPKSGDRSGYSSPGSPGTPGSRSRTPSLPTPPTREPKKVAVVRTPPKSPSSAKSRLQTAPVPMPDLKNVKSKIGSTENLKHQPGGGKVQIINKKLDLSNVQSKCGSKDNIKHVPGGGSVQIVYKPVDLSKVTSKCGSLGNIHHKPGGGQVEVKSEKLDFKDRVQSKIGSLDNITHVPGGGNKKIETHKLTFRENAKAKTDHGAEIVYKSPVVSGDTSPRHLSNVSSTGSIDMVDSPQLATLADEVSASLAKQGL

Row | SMILES | Potency | activity, negative = inhibition
1 | O=C(CCC(=O)OCc1ccc(C(=O)Oc2ccc(Cl)cc2)cc1)Nc1ccccc1 | inconclusive: 14.1 µM [inhibitor, partial curve] | –
2 | CCOc1cccc(NC(=O)Cc2cccs2)c1 | – | inactive: 10.7%
3 | O=C1C(Nc2ccccc2)=CC(c2ccc(O)cc2)N1c1ccccc1 (stereo unspecified) | inconclusive: 15.8 µM [inhibitor, partial curve] | –
4 | CCc1ccc2oc(-c3ccc(NC(=O)c4cc(OC)c(OC)c(OC)c4)cc3)nc2c1 | inconclusive: 1.26 µM [inhibitor, partial curve] | –
5 | CCOC(=O)c1ccc(N2C(=O)c3[nH]nc(-c4ccc(OCC)cc4)c3C2c2ccc(OC)cc2OC)cc1 (stereo unspecified) | inconclusive: 15.8 µM [inhibitor, partial curve] | –
6 | CCOC(=O)C1=C(c2ccccc2)N=c2s/c(=C\c3cccc(O)c3)c(=O)n2C1c1cccs1 (stereo unspecified) | active: 12.6 µM | –
7 | COc1ccc(NS(=O)(=O)c2csc(C(=O)Nc3ccccc3)c2)cc1 | inconclusive: 15.8 µM [inhibitor, partial curve] | –
8 | COc1cccc(/C=N/NC(=O)c2[nH]c(C)c(C(=O)N/N=C/c3cccc(OC)c3O)c2C)c1O | – | inactive: 13%
9 | COc1ccc(/C=C2\SC(=O)N(CC(=O)NCCC(C)C)C2=O)cc1OC | – | inactive: -7%
10 | CCC(=O)Nc1ccc2nc(SCc3ccc(C)cc3)sc2c1 | inconclusive: 11.2 µM [inhibitor, partial curve, poor fit] | –
11 | CCCN(CCC)S(=O)(=O)c1ccc(Cl)c([N+](=O)[O-])c1 | – | inactive: 1.63%
12 | COc1cc(C2C3CN(C)CC=C3C(C#N)=C(N)C2(C#N)C#N)ccc1OC(C)C (stereo unspecified) | inconclusive: 28.2 µM [inhibitor, single point] | –
13 | O=C(CN1CCSc2ccccc21)N1CCN(c2cccc(Cl)c2)CC1 | – | inactive: 12.1%
14 | O=c1c2ccccc2nnn1CSc1nnc(COc2ccc(Cl)cc2)n1Cc1ccco1 | – | inactive: 2.92%
15 | COc1ccc(C2C(C#N)=C(N)Oc3c2sc2nc(C)cc(C)c32)cc1 (stereo unspecified) | inconclusive: 12.6 µM [inhibitor, single point] | –
16 | Cc1cc2c(NC(=O)Nc3ccc(C(C)(C)C)cc3)cccc2nn1 | active: 35.5 µM | –
17 | Cc1ccc(Cc2nc3ccccc3nc2SCC(=O)Nc2cccc(C(F)(F)F)c2)cc1 | inconclusive: 14.1 µM [inhibitor, partial curve] | –
18 | CC1(C)CC(=O)C=C(N2CCCC2)C1 | inconclusive: 39.8 µM [inhibitor, single point] | –
19 | COc1ccc(C(=O)CC2OC(=O)c3c2ccc(OC)c3OC)cc1 (stereo unspecified) | – | inactive: -6.68%
20 | Cc1ccc(N(C(=O)Cn2nnc3ccccc32)C(C(=O)NCc2ccco2)c2cccnc2)cc1 (stereo unspecified) | inconclusive: 39.8 µM [inhibitor, single point] | –
21 | CC12CCC(C(=O)N(CSC(=S)N/N=C\c3ccccc3O)C1=O)C2(C)C (stereo unspecified) | – | inactive: 5.19%
22 | O=C(Nc1ccc(S(=O)(=O)N2CCOCC2)cc1)c1cc(-c2cc(Cl)ccc2O)n[nH]1 | inconclusive: 10 µM [inhibitor, partial curve] | –

Row | SMILES | Potency | activity, negative = inhibition
23 | CCOc1ccc(S(=O)(=O)N(CC(=O)N/N=C/c2cccs2)c2ccc(C)cc2)cc1 | inconclusive: 39.8 µM [inhibitor, single point] | –
24 | Cc1ccc(/C=N/n2c(=O)c(C(C)(C)C)nn3cnnc23)cc1 | inconclusive: 4.47 µM [inhibitor, single point] | –
25 | COc1ccccc1Nc1ccc(S(=O)(=O)N2CCCCC2)cc1[N+](=O)[O-] | inconclusive: 4.47 µM [activator, partial curve] | –
26 | CCc1cccc(NS(=O)(=O)c2c(C)n[nH]c2C)c1 | – | inactive: 3.7%
27 | c1ccc2c(CC3=NCCN3)cccc2c1 | inconclusive: 0.794 µM [inhibitor, single point] | –
28 | O=C1COc2cc(S(=O)(=O)CCC(=O)N3CCN(c4cccc(Cl)c4)CC3)c(Cl)cc2N1 | inconclusive: 31.6 µM [inhibitor, single point] | –
29 | CCOc1ccc(CNC(=O)Cn2nc(C)c3nn(-c4ccc(Cl)cc4)c(C)c3c2=O)cc1OC | inconclusive: 44.7 µM [activator, single point] | –
30 | Cc1ccc2c(Cl)cc(Cl)c(OCC(=O)OCC(=O)Nc3ccc(C#N)cc3)c2n1 | inconclusive: 0.0631 µM [inhibitor, single point] | –
31 | O=c1oc2c(O)c(O)cc3c(=O)oc4c(O)c(O)cc1c4c23 | inconclusive: 22.4 µM [inhibitor, partial curve] and inconclusive: 39.8 µM [inhibitor, partial curve] and inconclusive: 35.5 µM [inhibitor, partial curve] | –
32 | COc1cc2[nH]c(=S)nc(NCCc3ccc(C)cc3)c2cc1OC | inconclusive: 20 µM [activator, partial curve] | –
33 | COc1cc2nc(Nc3ccc(C)c(C)c3)nc(N)c2cc1OC | inconclusive: 3.16 µM [activator, partial curve, poor fit] | –
34 | COc1cc(/C=N/NC(=O)COc2cccc(F)c2)ccc1OS(=O)(=O)c1ccc(C)cc1 | inconclusive: 5.01 µM [inhibitor, partial curve] | –
35 | CCOC(=O)c1ccc(NC(=O)Cn2cc(C(=O)c3cccs3)c3ccccc32)cc1 | active: 15.8 µM | –
36 | CN(c1ccccc1C(=O)Nc1ccc(S(=O)(=O)N2CCCCC2)cc1)S(C)(=O)=O | – | inactive: 0.934%
37 | Cc1cccc(N2C(=O)CC(N3CCN(C(=O)c4ccccc4)CC3)C2=O)c1 (stereo unspecified) | – | inactive: -5.41%
38 | CCCCOC(=O)c1c(C)oc2ccc(NS(=O)(=O)c3ccc(F)cc3C)cc12 | inconclusive: 11.2 µM [inhibitor, partial curve] | –
39 | NS(=O)(=O)c1ccc(NC(=O)COC(=O)/C(=C/c2cccs2)c2cccs2)cc1 | inconclusive: 20 µM [inhibitor, partial curve] | –
40 | CCc1ccc(CNc2ncnc3onc(-c4ccc(Cl)cc4)c23)cc1 | – | inactive: -4.49%
41 | Cc1ccc(-c2nc3cccnc3s2)cc1NS(=O)(=O)c1ccc2c(c1)CCCC2 | inconclusive: 12.6 µM [inhibitor, partial curve] | –
42 | COc1ccc(NC(=O)Cn2c(=O)n(-c3ccc(C)c(C)c3)c(=O)c3c4c(sc32)CCCCC4)cc1Cl | inconclusive: 22.4 µM [inhibitor, partial curve] | –
43 | CN1c2ccccc2C(C)(C)C12C=Nc1c(ccc3ccccc13)O2 (stereo unspecified) | inconclusive: 31.6 µM [inhibitor, single point] | –
44 | CC(C)c1ccc(NC(=O)CCNS(=O)(=O)c2ccc3c(c2)oc(=O)n3C)cc1 | – | inactive: -6.31%

Row | SMILES | Potency | activity, negative = inhibition
45 | C=C(C)Cn1c(SCC(=O)Nc2cccc(C)c2)nc2sc3c(c2c1=O)CCCC3 | inconclusive: 35.5 µM [inhibitor, single point] | –
46 | COC(=O)Cc1[nH]n(-c2nc3ccccc3s2)c(=O)c1C(C)=Nc1ccc(Cl)cc1 | – | inactive: 2.89%
47 | CCOc1cc(CNc2ccc(S(N)(=O)=O)cc2)cc(Cl)c1OC | – | inactive: -11.6%
48 | Cc1nc2ccc(NC(=O)/C=C/C(=O)O)cc2nc1C | – | inactive: -5.04%
49 | O=C(Nc1ccccc1)N(O)c1ccc(Cl)cc1 | inconclusive: 31.6 µM [inhibitor, single point] | –
50 | COc1cccc(-c2cn3c(n2)sc2cc(C(=O)NCCC4=CCCCC4)ccc23)c1 | – | inactive: -0.221%
51 | O=C(CSc1oc(-c2ccc(F)cc2)nc1S(=O)(=O)c1ccc(Cl)cc1)c1ccccc1 | inconclusive: 14.1 µM [inhibitor, partial curve] | –
52 | CC(=O)N=c1sc2nc3ccccc3nc2n1N(C(C)=O)C(C)=O | inconclusive: 22.4 µM [inhibitor, single point] | –
53 | COc1ccc(Cl)cc1NC(=O)NCc1noc2ccccc12 | inconclusive: 39.8 µM [inhibitor, single point] | –
54 | CCOC(=O)CN1C(=O)C(=O)c2cccc(C)c21 | inconclusive: 0.794 µM [inhibitor, single point] | –
55 | Cc1cc(C(=O)OCC(=O)Nc2ccccc2)c(C)o1 | inconclusive: 1.12 µM [inhibitor, single point] | –
56 | CC(N)=NCCCC(N)C(=O)O (stereo unspecified) | – | inactive: 5.06%
57 | c1cc(CNc2ccc(N3CCOCC3)cc2)ccn1 | inconclusive: 44.7 µM [inhibitor, single point] | –
58 | Cc1nc(C)c(C(=O)Nc2ncc([N+](=O)[O-])s2)o1 | inconclusive: 28.2 µM [inhibitor, single point] | –
59 | O=C(Cn1ncc2c1-c1ccccc1OC2)Nc1ccc(S(=O)(=O)N2CCCCC2)cc1 | inconclusive: 25.1 µM [inhibitor, partial curve, poor fit] | –
60 | CCS(=O)(=O)N1CCc2cc(C(=O)Nc3cccc(NC(C)=O)c3)ccc21 | inconclusive: 17.8 µM [activator, partial curve] | –
61 | COC(=O)c1ccccc1NC(=O)c1sc(=S)n(C)c1N | – | inactive: 3.57%
62 | COc1ccc(-c2nc(CSc3nnc(C)n4c3cc3sccc34)c(C)o2)cc1 | inconclusive: 35.5 µM [activator, single point] | –
63 | Nc1ccc(Oc2ccc([N+](=O)[O-])cc2[N+](=O)[O-])cc1 | inconclusive: 44.7 µM [activator, single point] | –
64 | CN(C)S(=O)(=O)Oc1ccsc1C(=O)Nc1ccc(Cl)c(Cl)c1 | inconclusive: 28.2 µM [inhibitor, partial curve] | –
65 | O=C(Nc1ccc2c(c1)OCCO2)c1ccc(Cl)c(S(=O)(=O)N2CCCCC2)c1 | inconclusive: 22.4 µM [inhibitor, partial curve] | –
66 | Cc1cccc(NC(=O)C(Cc2ccccc2)N2Cc3ccccc3C2=O)c1C (stereo unspecified) | inconclusive: 28.2 µM [inhibitor, single point] | –
